Measured values from the supplement of paper PMC8728848.
Some of the results follow.

Columns and labels:
Assay in all cases: glycan array binding signal (z-score within array); higher = stronger binding
Conditions in all cases: glycan notation: IUPAC condensed, linker removed
[1] = biological target: GlcNAc(a1-4)Gal(b1-4)GlcNAc(b1-3)Gal(b1-4)GlcNAc(b1-3)Gal(b1-4)GlcNAc
Procedure, shortened: (§1)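 Columns mapping to the same glycan were averaged after glycan names were converted to IUPAC-condensed notation. The data come from 3228 arrays in the Consortium for Functional Glycomics database, limited to those with an available protein sequence. Binding is reported as a within-array Z-score averaged across arrays of one protein sequence and across linkers.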

[2] = biological target: GlcNAc(a1-4)Gal(b1-4)GlcNAc(b1-3)Gal(b1-4)[Fuc(a1-3)]GlcNAc(b1-3)Gal(b1-4)[Fuc(a1-3)]GlcNAc
Procedure, shortened: as §1

[3] = biological target: GlcNAc(a1-6)Gal(b1-4)GlcNAc
Procedure, shortened: as §1

[4] = biological target: GlcNAc(b1-2)Gal(b1-3)GalNAc
Procedure, shortened: as §1

[5] = biological target: GlcNAc(b1-2)Man(a1-3)[GlcNAc(b1-2)Man(a1-6)]Man(b1-4)GlcNAc(b1-4)GlcNAc
Procedure, shortened: as §1

[6] = biological target: GlcNAc(b1-2)Man(a1-3)[GlcNAc(b1-2)Man(a1-6)]Man(b1-4)GlcNAc(b1-4)[Fuc(a1-6)]GlcNAc
Procedure, shortened: as §1

[7] = biological target: GlcNAc(b1-2)Man(a1-3)[GlcNAc(b1-4)][GlcNAc(b1-2)Man(a1-6)]Man(b1-4)GlcNAc(b1-4)GlcNAc
Procedure, shortened: as §1

[8] = biological target: GlcNAc(b1-2)[GlcNAc(b1-4)]Man(a1-3)[GlcNAc(b1-2)Man(a1-6)]Man(b1-4)GlcNAc(b1-4)GlcNAc
Procedure, shortened: as §1

[9] = biological target: GlcNAc(b1-2)[GlcNAc(b1-4)]Man(a1-3)[GlcNAc(b1-4)][GlcNAc(b1-2)Man(a1-6)]Man(b1-4)GlcNAc(b1-4)GlcNAc
Procedure, shortened: as §1

[10] = biological target: GlcNAc(b1-2)[GlcNAc(b1-4)]Man(a1-3)[GlcNAc(b1-4)][GlcNAc(b1-2)[GlcNAc(b1-6)]Man(a1-6)]Man(b1-4)GlcNAc(b1-4)GlcNAc
Procedure, shortened: as §1

[11] = biological target: GlcNAc(b1-2)[GlcNAc(b1-4)]Man(a1-3)[GlcNAc(b1-4)][GlcNAc(b1-2)[GlcNAc(b1-6)]Man(a1-6)]Man(b1-4)GlcNAc(b1-4)[Fuc(a1-6)]GlcNAc
Procedure, shortened: as §1

[12] = biological target: GlcNAc(b1-2)[GlcNAc(b1-6)]Man(a1-6)[GlcNAc(b1-2)Man(a1-3)]Man(b1-4)GlcNAc(b1-4)GlcNAc
Procedure, shortened: as §1

[13] = biological target: GlcNAc(b1-2)[GlcNAc(b1-6)]Man(a1-6)[GlcNAc(b1-2)Man(a1-3)]Man(b1-4)GlcNAc(b1-4)[Fuc(a1-6)]GlcNAc
Procedure, shortened: as §1

[14] = biological target: GlcNAc(b1-2)[GlcNAc(b1-6)]Man(a1-6)[GlcNAc(b1-2)Man(a1-3)][GlcNAc(b1-4)]Man(b1-4)GlcNAc(b1-4)GlcNAc
Procedure, shortened: as §1

GlcNAc(b1-3)Gal = biological target: GlcNAc(b1-3)Gal
Procedure, shortened: as §1

[15] = biological target: GlcNAc(b1-3)Gal(b1-3)GalNAc
Procedure, shortened: as §1

GlcNAc(b1-3)Gal(b1-4)Glc = biological target: GlcNAc(b1-3)Gal(b1-4)Glc
Procedure, shortened: as §1

[16] = biological target: GlcNAc(b1-3)Gal(b1-4)GlcNAc
Procedure, shortened: as §1

[17] = biological target: GlcNAc(b1-3)Gal(b1-4)GlcNAc(b1-3)Gal(b1-4)GlcNAc
Procedure, shortened: as §1

GlcNAc(b1-3)GalNAc = biological target: GlcNAc(b1-3)GalNAc
Procedure, shortened: as §1

GlcNAc(b1-3)Man = biological target: GlcNAc(b1-3)Man
Procedure, shortened: as §1

[18] = biological target: GlcNAc(b1-3)[GlcNAc(b1-4)][GlcNAc(b1-6)]GlcNAc
Procedure, shortened: as §1

[19] = biological target: GlcNAc(b1-3)[GlcNAc(b1-6)]Gal(b1-4)GlcNAc
Procedure, shortened: as §1

[20] = biological target: GlcNAc(b1-3)[GlcNAc(b1-6)]GalNAc
Procedure, shortened: as §1

[21] = biological target: GlcNAc(b1-4)Gal(b1-4)GlcNAc
Procedure, shortened: as §1

GlcNAc(b1-4)GlcNAc = biological target: GlcNAc(b1-4)GlcNAc
Procedure, shortened: as §1

[22] = biological target: GlcNAc(b1-4)GlcNAc(b1-4)GlcNAc
Procedure, shortened: as §1

[23] = biological target: GlcNAc(b1-4)GlcNAc(b1-4)GlcNAc(b1-4)GlcNAc(b1-4)GlcNAc
Procedure, shortened: as §1

[24] = biological target: GlcNAc(b1-4)GlcNAc(b1-4)GlcNAc(b1-4)GlcNAc(b1-4)GlcNAc(b1-4)GlcNAc
Procedure, shortened: as §1

[25] = biological target: GlcNAc(b1-4)[GlcNAc(b1-6)]GalNAc
Procedure, shortened: as §1

[26] = biological target: GlcNAc(b1-6)Gal(b1-4)GlcNAc
Procedure, shortened: as §1

GlcNAc(b1-6)GalNAc = biological target: GlcNAc(b1-6)GalNAc
Procedure, shortened: as §1

GlcNAc3Prop(b1-4)GlcNAc = biological target: GlcNAc3Prop(b1-4)GlcNAc
Procedure, shortened: as §1

[27] = biological target: GlcNAc6S(b1-3)Gal(b1-4)GlcNAc
Procedure, shortened: as §1

Kdn(a2-3)Gal(b1-3)GalNAc = biological target: Kdn(a2-3)Gal(b1-3)GalNAc
Procedure, shortened: as §1

Kdn(a2-3)Gal(b1-3)GlcNAc = biological target: Kdn(a2-3)Gal(b1-3)GlcNAc
Procedure, shortened: as §1

Kdn(a2-3)Gal(b1-4)Glc = biological target: Kdn(a2-3)Gal(b1-4)Glc
Procedure, shortened: as §1

Kdn(a2-3)Gal(b1-4)GlcNAc = biological target: Kdn(a2-3)Gal(b1-4)GlcNAc
Procedure, shortened: as §1

[28] = biological target: Kdn(a2-3)Gal(b1-4)[Fuc(a1-3)]GlcNAc
Procedure, shortened: as §1

Kdn(a2-6)Gal(b1-4)GlcNAc = biological target: Kdn(a2-6)Gal(b1-4)GlcNAc
Procedure, shortened: as §1

[29] = biological target: Man(a1-2)Man(a1-2)Man(a1-3)Man
Procedure, shortened: as §1

[30] = biological target: Man(a1-2)Man(a1-2)Man(a1-6)[Man(a1-3)]Man
Procedure, shortened: as §1

Man(a1-2)Man(a1-3)Man = biological target: Man(a1-2)Man(a1-3)Man
Procedure, shortened: as §1

[31] = biological target: Man(a1-2)Man(a1-3)[Man(a1-2)Man(a1-6)]Man
Procedure, shortened: as §1

[32] = biological target: Man(a1-2)Man(a1-3)[Man(a1-2)Man(a1-6)]Man(a1-6)[Man(a1-2)Man(a1-2)Man(a1-3)]Man
Procedure, shortened: as §1

B1: Morniga (Morus nigra) (protein)
chain: MAGTSTNTQTTGTSQTVEVGLWGGPGGNAWDDGSYTGIREINLSHGDAIGAFSVIYDLNGQPFTGPTHPGNEPSFKTVKITLDFPNEFLVSVSGYTGVLPRLATGKDVIRSLTFKTNKKTYGPYGKEEGTPFSLPIENGLIVGFKGRSGFVVDAIGVHLS
glycan array binding signal (z-score) [1]: -0.327
glycan array binding signal (z-score) [2]: 0.158
glycan array binding signal (z-score) [3]: -0.202
glycan array binding signal (z-score) [4]: -0.33
glycan array binding signal (z-score) [5]: 3.52
glycan array binding signal (z-score) [6]: 0.79
glycan array binding signal (z-score) [7]: 1.43
glycan array binding signal (z-score) [8]: -0.198
glycan array binding signal (z-score) [9]: -0.329
glycan array binding signal (z-score) [10]: -0.331
glycan array binding signal (z-score) [11]: -0.336
glycan array binding signal (z-score) [12]: 2.48
glycan array binding signal (z-score) [13]: 1.94
glycan array binding signal (z-score) [14]: 1.82
glycan array binding signal (z-score) (GlcNAc(b1-3)Gal): -0.34
glycan array binding signal (z-score) [15]: -0.326
glycan array binding signal (z-score) (GlcNAc(b1-3)Gal(b1-4)Glc): -0.331
glycan array binding signal (z-score) [16]: -0.34
glycan array binding signal (z-score) [17]: -0.337
glycan array binding signal (z-score) (GlcNAc(b1-3)GalNAc): -0.333
glycan array binding signal (z-score) (GlcNAc(b1-3)Man): -0.34
glycan array binding signal (z-score) [18]: -0.334
glycan array binding signal (z-score) [19]: -0.34
glycan array binding signal (z-score) [20]: -0.331
glycan array binding signal (z-score) [21]: -0.337
glycan array binding signal (z-score) (GlcNAc(b1-4)GlcNAc): -0.336
glycan array binding signal (z-score) [22]: -0.318
glycan array binding signal (z-score) [23]: -0.335
glycan array binding signal (z-score) [24]: -0.329
glycan array binding signal (z-score) [25]: -0.331
glycan array binding signal (z-score) [26]: -0.332
glycan array binding signal (z-score) (GlcNAc(b1-6)GalNAc): -0.339
glycan array binding signal (z-score) (GlcNAc3Prop(b1-4)GlcNAc): -0.339
glycan array binding signal (z-score) [27]: -0.338
glycan array binding signal (z-score) (Kdn(a2-3)Gal(b1-3)GalNAc): -0.198
glycan array binding signal (z-score) (Kdn(a2-3)Gal(b1-3)GlcNAc): -0.333
glycan array binding signal (z-score) (Kdn(a2-3)Gal(b1-4)Glc): -0.336
glycan array binding signal (z-score) (Kdn(a2-3)Gal(b1-4)GlcNAc): -0.331
glycan array binding signal (z-score) [28]: -0.325
glycan array binding signal (z-score) (Kdn(a2-6)Gal(b1-4)GlcNAc): -0.329
glycan array binding signal (z-score) [29]: -0.334
glycan array binding signal (z-score) [30]: -0.33
glycan array binding signal (z-score) (Man(a1-2)Man(a1-3)Man): -0.342
glycan array binding signal (z-score) [31]: -0.331
glycan array binding signal (z-score) [32]: -0.327
